Measurements as given in patent publication US11524934B2, “Phenylamine compounds” (PI INDUSTRIES LTD., priority 2017, dated 2022).

Key:
Settings in all cases: 168 h, read-out: control
Alternaria solani = Alternaria solani (early blight of tomato/potato) in vitro test, radial growth on Potato Dextrose Agar
Pyricularia oryzae = experiment: microbe, parasite or virus in culture; type: cell-based
Rhizoctonia solani = test system: Rhizoctonia solani
Botrytis cinerea = Botrytis cinerea (Gray mold) in vitro test, radial growth on Potato Dextrose Agar

Compound | inhibition of growth at 300 ppm (Alternaria solani) | inhibition of growth at 300 ppm (Pyricularia oryzae) | inhibition of growth at 300 ppm (Rhizoctonia solani) | inhibition of growth at 300 ppm (Botrytis cinerea)
CCN(C)C=Nc1cc(C)c(C(=O)COc2cccc(SC(F)(F)C(F)(F)F)c2)cc1C [Compound 67, N′-(2,5-dimethyl-4-(2-(3-((perfluoroethyl)thio)phenoxy)acetyl)phenyl)-N-ethyl-N-methylformimidamide] | > 70% | > 70% | – | –
Cc1cc(C(=O)COc2cccc(OC(F)(F)F)c2)c(C)cc1N=CN(C)C [Compound 115, N′-(2,5-dimethyl-4-(2-(3-(trifluoromethoxy)phenoxy)acetyl)phenyl)-N,N-dimethylformimidamide] | > 70% | > 70% | – | –
Cc1cc(C(=O)CSc2cccc(F)c2)c(C)cc1N=CN(C)C [Compound 106, N′-(4-(2-((3-fluorophenyl)thio)acetyl)-2,5-dimethylphenyl)-N,N-dimethylformimidamide] | > 70% | > 70% | – | –
CCN(C)C=Nc1cc(C)c(C(=O)COc2ccc(Cl)c(C(F)(F)F)c2)cc1C [Compound 98, N′-(4-(2-(4-chloro-3-(trifluoromethyl)phenoxy)acetyl)-2,5-dimethylphenyl)-N-ethyl-N-methylformimidamide] | > 70% | > 70% | – | –
CCN(C)C=Nc1cc(C)c(C(=O)COc2ccc(OC(F)(F)F)cc2)cc1C [Compound 14, N′-(2,5-dimethyl-4-(2-(4-(trifluoromethoxy)phenoxy)acetyl)phenyl)-N-ethyl-N-methylformimidamide] | > 70% | > 70% | > 70% | –
CCN(C)C=Nc1cc(C)c(C(=O)CSc2cccc(C)c2)cc1Cl [Compound 35, N′-(2-chloro-5-methyl-4-(2-(m-tolylthio)acetyl)phenyl)-N-ethyl-N-methylformimidamide] | > 70% | – | – | –
CCSc1cccc(OCC(=O)c2cc(C)c(N=CN(C)CC)cc2C)c1 [Compound 111, N-ethyl-N′-(4-(2-(3-(ethylthio)phenoxy)acetyl)-2,5-dimethylphenyl)-N-methylformimidamide] | > 70% | > 70% | > 70% | –
CCN(C)C=Nc1cc(C)c(C(=O)CSc2cccc(OC)c2)cc1Cl [Compound 56, N′-(2-chloro-4-(2-((3-methoxyphenyl)thio)acetyl)-5-methylphenyl)-N-ethyl-N-methylformimidamide] | > 70% | – | – | –
Cc1cc(C(=O)CSc2nc3ccccc3s2)c(C)cc1N=CN(C)C [Compound 116, N′-(4-(2-(benzo[d]thiazol-2-ylthio)acetyl)-2,5-dimethylphenyl)-N,N-dimethylformimidamide] | > 70% | – | – | –
CCN(C)C=Nc1cc(C)c(C(=O)CSc2cccc(Cl)c2)cc1C [Compound 63, N′-(4-(2-((3-chlorophenyl)thio)acetyl)-2,5-dimethylphenyl)-N-ethyl-N-methylformimidamide] | > 70% | > 70% | > 70% | –
CCN(C)C=Nc1cc(C)c(C(=O)CSc2ccc(Br)cc2)cc1C [Compound 22, N′-(4-(2-((4-bromophenyl)thio)acetyl)-2,5-dimethylphenyl)-N-ethyl-N-methylformimidamide] | > 70% | > 70% | > 70% | > 70%
CCN(C)C=Nc1cc(C)c(C(=O)COc2ccc(C)cc2Br)cc1C [Compound 81, N′-(4-(2-(2-bromo-4-methylphenoxy)acetyl)-2,5-dimethylphenyl)-N-ethyl-N-methylformimidamide] | > 70% | > 70% | > 70% | –
CCN(C)C=Nc1cc(C)c(C(=O)COc2ccc(Cl)c(Cl)c2)cc1C [Compound 73, N′-(4-(2-(3,4-dichlorophenoxy)acetyl)-2,5-dimethylphenyl)-N-ethyl-N-methylformimidamide] | > 70% | > 70% | – | –
CCN(C)C=Nc1cc(C)c(C(=O)COc2ccccc2OC)cc1C [Compound 110, N-ethyl-N′-(4-(2-(2-methoxyphenoxy)acetyl)-2,5-dimethylphenyl)-N-methylformimidamide] | – | > 70% | – | –
CCN(C)C=Nc1cc(C)c(C(=O)COc2cc(C)ccc2C)cc1Cl [Compound 119, N′-(2-chloro-4-(2-(2,5-dimethylphenoxy)acetyl)-5-methylphenyl)-N-ethyl-N-methylformimidamide] | > 70% | – | – | –
CCN(C)C=Nc1cc(C)c(C(=O)CSc2ccc(SC)cc2)cc1C [Compound 64, N′-(2,5-dimethyl-4-(2-((4-(methylthio)phenyl)thio)acetyl)phenyl)-N-ethyl-N-methylformimidamide] | > 70% | > 70% | > 70% | –

Compound | inhibition of growth at 300 ppm (Alternaria solani) | inhibition of growth at 300 ppm (Pyricularia oryzae) | inhibition of growth at 300 ppm (Rhizoctonia solani) | inhibition of growth at 300 ppm (Botrytis cinerea)
CCN(C)C=Nc1cc(C)c(C(=O)CSc2ccccc2F)cc1Cl [Compound 58, N′-(2-chloro-4-(2-((2-fluorophenyl)thio)acetyl)-5-methylphenyl)-N-ethyl-N-methylformimidamide] | – | > 70% | – | –
CCN(C)C=Nc1cc(C)c(C(=O)COc2ccccc2C)cc1C [Compound 71, N′-(2,5-dimethyl-4-(2-(o-tolyloxy)acetyl)phenyl)-N-ethyl-N-methylformimidamide] | > 70% | > 70% | > 70% | –
CCN(C)C=Nc1cc(C)c(C(=O)COc2cccc(SCCC(F)=C(F)F)c2)cc1C [Compound 78, N′-(2,5-dimethyl-4-(2-(3-((3,4,4-trifluorobut-3-en-1-yl)thio)phenoxy)acetyl)phenyl)-N-ethyl-N-methylformimidamide] | > 70% | > 70% | > 70% | –
Cc1cc(N=CN(C)C)c(Cl)cc1C(=O)CSc1ccccc1Br [Compound 104, N′-(4-(2-((2-bromophenyl)thio)acetyl)-2-chloro-5-methylphenyl)-N,N-dimethylformimidamide] | > 70% | – | – | –
CCN(C)C=Nc1cc(C)c(C(=O)COc2cccc(C(F)(F)F)c2)cc1C [Compound 72, N′-(2,5-dimethyl-4-(2-(3-(trifluoromethyl)phenoxy)acetyl)phenyl)-N-ethyl-N-methylformimidamide] | > 70% | > 70% | – | –
CCN(C)C=Nc1cc(C)c(C(=O)CN(C)c2ccccc2)cc1C [Compound 85, N′-(2,5-dimethyl-4-(N-methyl-N-phenylglycyl)phenyl)-N-ethyl-N-methylformimidamide] | > 70% | > 70% | – | –
CSc1cccc(OCC(=O)c2cc(C)c(N=CN(C)C)cc2C)c1 [Compound 105, N′-(2,5-dimethyl-4-(2-(3-(methylthio)phenoxy)acetyl)phenyl)-N,N-dimethylformimidamide] | > 70% | > 70% | > 70% | –
CCN(C)C=Nc1cc(C)c(C(=O)CSc2cccc(C(F)(F)F)c2)cc1C [Compound 60, N′-(2,5-dimethyl-4-(2-((3-(trifluoromethyl)phenyl)thio)acetyl)phenyl)-N-ethyl-N-methylformimidamide] | > 70% | > 70% | > 70% | –
Cc1cc(C(=O)COc2ccc(C(F)(F)F)cc2)c(C)cc1N=CN(C)C [Compound 118, N′-(2,5-dimethyl-4-(2-(4-(trifluoromethyl)phenoxy)acetyl)phenyl)-N,N-dimethylformimidamide] | – | > 70% | – | –
CCN(C)C=Nc1cc(C)c(C(=O)COc2cc(Cl)cc(Cl)c2)cc1C [Compound 97, N′-(4-(2-(3,5-dichlorophenoxy)acetyl)-2,5-dimethylphenyl)-N-ethyl-N-methylformimidamide] | > 70% | > 70% | > 70% | –
CCN(C)C=Nc1cc(C)c(C(=O)COc2cccc(N(C)C)c2)cc1C [Compound 69, N′-(4-(2-(3-(dimethylamino)phenoxy)acetyl)-2,5-dimethylphenyl)-N-ethyl-N-methylformimidamide] | > 70% | > 70% | > 70% | –
CCN(C)C=Nc1cc(C)c(C(=O)CSc2c(C)cccc2C)cc1C [Compound 82, N′-(4-(2-((2,6-dimethylphenyl)thio)acetyl)-2,5-dimethylphenyl)-N-ethyl-N-methylformimidamide] | > 70% | > 70% | > 70% | –
CCN(C)C=Nc1cc(C)c(C(=O)CSc2cc(Cl)cc(Cl)c2)cc1C [Compound 101, N′-(4-(2-((3,5-dichlorophenyl)thio)acetyl)-2,5-dimethylphenyl)-N-ethyl-N-methylformimidamide] | > 70% | > 70% | – | –
CCN(C)C=Nc1cc(C)c(C(=O)C(C)Oc2cccc(C)c2)cc1C (stereo not shown) [Compound 77, N′-(2,5-dimethyl-4-(2-(m-tolyloxy)propanoyl)phenyl)-N-ethyl-N-methylformimidamide] | > 70% | > 70% | – | –
Cc1cc(C(=O)CSc2c(C)cccc2C)c(C)cc1N=CN(C)C [Compound 107, N′-(4-(2-((2,6-dimethylphenyl)thio)acetyl)-2,5-dimethylphenyl)-N,N-dimethylformimidamide] | – | > 70% | – | > 70%
Cc1cc(C(=O)Cn2cnnc2)c(C)cc1N=CN(C)C [Compound 117, N′-(4-(2-(4H-1,2,4-triazol-4-yl)acetyl)-2,5-dimethylphenyl)-N,N-dimethylformimidamide] | > 70% | > 70% | – | –
